# Results: the supplement of paper PMC8728848
# The list shows a part of the results.
# How the values were obtained:
# Assay in all cases: glycan array binding signal (z-score within array); higher = stronger binding
# Conditions in all cases: glycan notation: IUPAC condensed, linker removed
# [1] = target: Neu5Ac(a2-3)Gal(b1-4)GlcNAc(b1-6)GalNAc
# Summary of the method: (§1)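 Glycan array data were curated from 3228 arrays in the Consortium for Functional Glycomics database and kept only where the protein sequence was available. Glycan names were converted to IUPAC-condensed notation, and columns mapping to the same glycan were averaged. The binding signal is a within-array Z-score, averaged across arrays of the same protein sequence at different concentrations or buffers and across linkers. Negative Z-scores can be read as non-binding.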
# [2] = target: Neu5Ac(a2-3)Gal(b1-4)GlcNAc(b1-6)[Gal(b1-3)]GalNAc
# Summary of the method: as §1
# [3] = target: Neu5Ac(a2-3)Gal(b1-4)GlcNAc(b1-6)[Neu5Ac(a2-3)Gal(b1-3)]GalNAc
# Summary of the method: as §1
# [4] = target: Neu5Ac(a2-3)Gal(b1-4)GlcNAc6S
# Summary of the method: as §1
# [5] = target: Neu5Ac(a2-3)Gal(b1-4)[Fuc(a1-3)]GlcNAc
# Summary of the method: as §1
# [6] = target: Neu5Ac(a2-3)Gal(b1-4)[Fuc(a1-3)]GlcNAc(b1-2)Man
# Summary of the method: as §1
# [7] = target: Neu5Ac(a2-3)Gal(b1-4)[Fuc(a1-3)]GlcNAc(b1-3)Gal
# Summary of the method: as §1
# [8] = target: Neu5Ac(a2-3)Gal(b1-4)[Fuc(a1-3)]GlcNAc(b1-3)Gal(b1-4)GlcNAc
# Summary of the method: as §1
# [9] = target: Neu5Ac(a2-3)Gal(b1-4)[Fuc(a1-3)]GlcNAc(b1-3)Gal(b1-4)[Fuc(a1-3)]GlcNAc(b1-3)Gal(b1-4)[Fuc(a1-3)]GlcNAc
# Summary of the method: as §1
# [10] = target: Neu5Ac(a2-3)Gal(b1-4)[Fuc(a1-3)]GlcNAc(b1-3)GalNAc
# Summary of the method: as §1
# [11] = target: Neu5Ac(a2-3)Gal(b1-4)[Fuc(a1-3)]GlcNAc(b1-6)[Gal(b1-3)]GalNAc
# Summary of the method: as §1
# [12] = target: Neu5Ac(a2-3)Gal(b1-4)[Fuc(a1-3)]GlcNAc(b1-6)[Neu5Ac(a2-3)Gal(b1-3)]GalNAc
# Summary of the method: as §1
# [13] = target: Neu5Ac(a2-3)Gal(b1-4)[Fuc(a1-3)]GlcNAc6S
# Summary of the method: as §1
# [14] = target: Neu5Ac(a2-3)Gal6S(b1-4)GlcNAc
# Summary of the method: as §1
# [15] = target: Neu5Ac(a2-3)Gal6S(b1-4)[Fuc(a1-3)]GlcNAc
# Summary of the method: as §1
# Neu5Ac(a2-3)GalNAc = target: Neu5Ac(a2-3)GalNAc
# Summary of the method: as §1
# [16] = target: Neu5Ac(a2-3)GalNAc(b1-4)GlcNAc
# Summary of the method: as §1
# [17] = target: Neu5Ac(a2-3)[GalNAc(b1-4)]Gal(b1-4)Glc
# Summary of the method: as §1
# [18] = target: Neu5Ac(a2-3)[GalNAc(b1-4)]Gal(b1-4)GlcNAc
# Summary of the method: as §1
# [19] = target: Neu5Ac(a2-3)[GalNAc(b1-4)]Gal(b1-4)GlcNAc(b1-3)GalNAc
# Summary of the method: as §1
# [20] = target: Neu5Ac(a2-3)[Neu5Ac(a2-6)]GalNAc
# Summary of the method: as §1
# Neu5Ac(a2-6)Gal = target: Neu5Ac(a2-6)Gal
# Summary of the method: as §1
# [21] = target: Neu5Ac(a2-6)Gal(b1-3)GlcNAc(b1-3)[Gal(b1-4)GlcNAc(b1-6)]Gal(b1-4)Glc
# Summary of the method: as §1
# Neu5Ac(a2-6)Gal(b1-4)Glc = target: Neu5Ac(a2-6)Gal(b1-4)Glc
# Summary of the method: as §1
# [22] = target: Neu5Ac(a2-6)Gal(b1-4)GlcNAc
# Summary of the method: as §1
# [23] = target: Neu5Ac(a2-6)Gal(b1-4)GlcNAc(b1-2)Man
# Summary of the method: as §1
# [24] = target: Neu5Ac(a2-6)Gal(b1-4)GlcNAc(b1-2)Man(a1-3)Man(b1-4)GlcNAc(b1-4)GlcNAc
# Summary of the method: as §1
# [25] = target: Neu5Ac(a2-6)Gal(b1-4)GlcNAc(b1-2)Man(a1-3)[Gal(b1-4)GlcNAc(b1-2)Man(a1-6)]Man(b1-4)GlcNAc(b1-4)GlcNAc
# Summary of the method: as §1
# [26] = target: Neu5Ac(a2-6)Gal(b1-4)GlcNAc(b1-2)Man(a1-3)[GlcNAc(b1-4)][Neu5Ac(a2-6)Gal(b1-4)GlcNAc(b1-2)Man(a1-6)]Man(b1-4)GlcNAc(b1-4)GlcNAc
# Summary of the method: as §1
# [27] = target: Neu5Ac(a2-6)Gal(b1-4)GlcNAc(b1-2)Man(a1-3)[Man(a1-6)]Man(b1-4)GlcNAc(b1-4)GlcNAc
# Summary of the method: as §1
# [28] = target: Neu5Ac(a2-6)Gal(b1-4)GlcNAc(b1-2)Man(a1-3)[Neu5Ac(a2-3)Gal(b1-4)GlcNAc(b1-2)Man(a1-6)]Man(b1-4)GlcNAc(b1-4)GlcNAc
# Summary of the method: as §1
# [29] = target: Neu5Ac(a2-6)Gal(b1-4)GlcNAc(b1-2)Man(a1-3)[Neu5Ac(a2-6)Gal(b1-4)GlcNAc(b1-2)Man(a1-6)]Man(b1-4)GlcNAc(b1-4)GlcNAc
# Summary of the method: as §1
# [30] = target: Neu5Ac(a2-6)Gal(b1-4)GlcNAc(b1-2)Man(a1-3)[Neu5Ac(a2-6)Gal(b1-4)GlcNAc(b1-2)Man(a1-6)]Man(b1-4)GlcNAc(b1-4)[Fuc(a1-6)]GlcNAc
# Summary of the method: as §1
# [31] = target: Neu5Ac(a2-6)Gal(b1-4)GlcNAc(b1-2)Man(a1-6)Man(b1-4)GlcNAc(b1-4)GlcNAc
# Summary of the method: as §1
# [32] = target: Neu5Ac(a2-6)Gal(b1-4)GlcNAc(b1-2)Man(a1-6)[Gal(b1-4)GlcNAc(b1-2)Man(a1-3)]Man(b1-4)GlcNAc(b1-4)GlcNAc
# Summary of the method: as §1
# [33] = target: Neu5Ac(a2-6)Gal(b1-4)GlcNAc(b1-2)Man(a1-6)[GlcNAc(b1-2)Man(a1-3)]Man(b1-4)GlcNAc(b1-4)GlcNAc
# Summary of the method: as §1
# [34] = target: Neu5Ac(a2-6)Gal(b1-4)GlcNAc(b1-2)Man(a1-6)[Man(a1-3)]Man(b1-4)GlcNAc(b1-4)GlcNAc
# Summary of the method: as §1
# [35] = target: Neu5Ac(a2-6)Gal(b1-4)GlcNAc(b1-2)[Neu5Ac(a2-6)Gal(b1-4)GlcNAc(b1-4)]Man(a1-3)[GlcNAc(b1-4)][Neu5Ac(a2-6)Gal(b1-4)GlcNAc(b1-2)[Neu5Ac(a2-6)Gal(b1-4)GlcNAc(b1-6)]Man(a1-6)]Man(b1-4)GlcNAc(b1-4)GlcNAc
# Summary of the method: as §1
# [36] = target: Neu5Ac(a2-6)Gal(b1-4)GlcNAc(b1-2)[Neu5Ac(a2-6)Gal(b1-4)GlcNAc(b1-4)]Man(a1-3)[GlcNAc(b1-4)][Neu5Ac(a2-6)Gal(b1-4)GlcNAc(b1-4)Man(a1-6)]Man(b1-4)GlcNAc(b1-4)GlcNAc
# Summary of the method: as §1
# [37] = target: Neu5Ac(a2-6)Gal(b1-4)GlcNAc(b1-2)[Neu5Ac(a2-6)Gal(b1-4)GlcNAc(b1-6)]Man(a1-6)[Neu5Ac(a2-6)Gal(b1-4)GlcNAc(b1-2)Man(a1-3)][GlcNAc(b1-4)]Man(b1-4)GlcNAc(b1-4)GlcNAc
# Summary of the method: as §1
# [38] = target: Neu5Ac(a2-6)Gal(b1-4)GlcNAc(b1-3)Gal(b1-3)GlcNAc
# Summary of the method: as §1
# [39] = target: Neu5Ac(a2-6)Gal(b1-4)GlcNAc(b1-3)Gal(b1-4)GlcNAc
# Summary of the method: as §1
# [40] = target: Neu5Ac(a2-6)Gal(b1-4)GlcNAc(b1-3)Gal(b1-4)GlcNAc(b1-2)Man(a1-3)[Neu5Ac(a2-6)Gal(b1-4)GlcNAc(b1-3)Gal(b1-4)GlcNAc(b1-2)Man(a1-6)]GalNAc
# Summary of the method: as §1
# [41] = target: Neu5Ac(a2-6)Gal(b1-4)GlcNAc(b1-3)Gal(b1-4)GlcNAc(b1-3)Gal(b1-4)GlcNAc
# Summary of the method: as §1
# [42] = target: Neu5Ac(a2-6)Gal(b1-4)GlcNAc(b1-3)Gal(b1-4)GlcNAc(b1-3)Gal(b1-4)GlcNAc(b1-2)Man(a1-3)[Neu5Ac(a2-6)Gal(b1-4)GlcNAc(b1-3)Gal(b1-4)GlcNAc(b1-3)Gal(b1-4)GlcNAc(b1-2)Man(a1-6)]GalNAc
# Summary of the method: as §1
binder,measurement,setting,value
Mermaid3 (Stilbonema majum) (protein) MGSSHHHHHHSSGLVPRGSHMAASGWLRSPQGTVVKLYRRSLSWSKADEFCKDVDGRLVVDRTADMHLFLIKNVLKEKKSRVWVGLRRTASHSRTWIWSDGTRQNEGDLDANLWLRDEPNDAAGEEECALFMYSPWEKAWGLNDYLCRGGCRNYQFICEKWIR,glycan array binding signal (z-score),[1],-0.776
same,glycan array binding signal (z-score),[2],4.77
same,glycan array binding signal (z-score),[3],-0.132
same,glycan array binding signal (z-score),[4],-0.701
same,glycan array binding signal (z-score),[5],-0.77
same,glycan array binding signal (z-score),[6],-0.553
same,glycan array binding signal (z-score),[7],-0.782
same,glycan array binding signal (z-score),[8],-0.249
same,glycan array binding signal (z-score),[9],-0.718
same,glycan array binding signal (z-score),[10],-0.224
same,glycan array binding signal (z-score),[11],-0.742
same,glycan array binding signal (z-score),[12],-0.153
same,glycan array binding signal (z-score),[13],-0.098
same,glycan array binding signal (z-score),[14],-0.465
same,glycan array binding signal (z-score),[15],-0.532
same,glycan array binding signal (z-score),Neu5Ac(a2-3)GalNAc,2.33
same,glycan array binding signal (z-score),[16],0.426
same,glycan array binding signal (z-score),[17],-0.811
same,glycan array binding signal (z-score),[18],-0.598
same,glycan array binding signal (z-score),[19],-0.61
same,glycan array binding signal (z-score),[20],4.44
same,glycan array binding signal (z-score),Neu5Ac(a2-6)Gal,-0.644
same,glycan array binding signal (z-score),[21],-0.731
same,glycan array binding signal (z-score),Neu5Ac(a2-6)Gal(b1-4)Glc,-0.474
same,glycan array binding signal (z-score),[22],-0.565
same,glycan array binding signal (z-score),[23],0.55
same,glycan array binding signal (z-score),[24],-0.256
same,glycan array binding signal (z-score),[25],1.92
same,glycan array binding signal (z-score),[26],-0.644
same,glycan array binding signal (z-score),[27],1.05
same,glycan array binding signal (z-score),[28],-0.731
same,glycan array binding signal (z-score),[29],-0.268
same,glycan array binding signal (z-score),[30],-0.531
same,glycan array binding signal (z-score),[31],-0.74
same,glycan array binding signal (z-score),[32],-0.747
same,glycan array binding signal (z-score),[33],-0.484
same,glycan array binding signal (z-score),[34],-0.751
same,glycan array binding signal (z-score),[35],-0.816
same,glycan array binding signal (z-score),[36],-0.448
same,glycan array binding signal (z-score),[37],-0.692
same,glycan array binding signal (z-score),[38],-0.009
same,glycan array binding signal (z-score),[39],-0.443
same,glycan array binding signal (z-score),[40],0.719
same,glycan array binding signal (z-score),[41],-0.539
same,glycan array binding signal (z-score),[42],-0.062
